The campaign covered roughly 390,000 compounds. About 4,000 (1%) were called active. The inconclusive results got no clear call from the source; some entries with a clear call stand among them for comparison. The call rests on the fitted dose curve; in most records, active means well fitted inhibition curve with a large enough effect; inconclusive means small, poorly fitted or top-dose-only effect; inactive means no such curve, though single readings can be large or run the other way. Potencies beside an inconclusive call are fits to weak or partial responses and may not hold up. The source holds several records for some structures; these can differ, active in one and inactive in another.
target: Thioredoxin reductase 1, cytoplasmic (Rattus norvegicus) (UniProt O89049); assay: qHTS Assay for Inhibitors of Mammalian Selenoprotein Thioredoxin Reductase 1 (TrxR1): qHTS; details: recombinant rTrxR1, NADPH fluorescence consumption, selenite substrate; series mostly up to 114 µM; activity change, negative = inhibition: at the top concentration; further: nearly all actives have a fitted effect of over 65% in size
Chain of UniProt O89049 (O89049 whole entry, looked up): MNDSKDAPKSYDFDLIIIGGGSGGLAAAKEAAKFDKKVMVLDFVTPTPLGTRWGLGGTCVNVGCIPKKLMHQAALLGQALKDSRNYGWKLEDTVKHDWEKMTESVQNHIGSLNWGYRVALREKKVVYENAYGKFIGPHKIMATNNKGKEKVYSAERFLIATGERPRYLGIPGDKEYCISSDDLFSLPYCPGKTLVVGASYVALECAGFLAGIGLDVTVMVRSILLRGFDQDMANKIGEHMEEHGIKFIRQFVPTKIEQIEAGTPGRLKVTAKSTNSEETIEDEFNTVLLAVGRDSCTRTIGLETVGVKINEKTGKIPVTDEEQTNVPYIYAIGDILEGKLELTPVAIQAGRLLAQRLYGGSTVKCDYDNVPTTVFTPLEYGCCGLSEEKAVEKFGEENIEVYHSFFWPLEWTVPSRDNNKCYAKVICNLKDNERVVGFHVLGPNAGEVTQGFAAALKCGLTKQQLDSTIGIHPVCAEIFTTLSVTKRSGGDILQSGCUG
Summary of the method: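 Rat TrxR1 (90 nM in the dispensed reagent) was pre-reduced with 400 uM NADPH for 5 min at room temperature, then incubated with compound for 15 min. After 400 uM selenite was added, NADPH fluorescence (Ex 340/Em 450 nm) was followed for 8 min.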
On the % scale 0 is the no-effect control and ±100 the full control effect; potency means the concentration at half of the fitted maximal effect; tags describe the fitted curve by direction and shape.

Structure (SMILES) | Potency | activity change, negative = inhibition
Cc1ccc2c(c1)Oc1ccc(NC(=O)CCl)cc1C(=O)N2 | inconclusive: 56.2 µM [inhibitor, partial curve] | –
O=C(NC(Cc1ccccc1)C(=O)O)/C(=C/c1ccc([N+](=O)[O-])cc1)NC(=O)c1ccccc1 (stereo unspecified) | inconclusive: 39.8 µM [inhibitor, single point] | –
CN(C)c1ccc(/C=N/N2C(=S)SC(C)(C)C2N(O)C(=O)Nc2ccc([N+](=O)[O-])cc2)cc1 (stereo unspecified) | inconclusive: 79.4 µM [inhibitor, single point] | –
COc1ccc(Cn2c(CO)cnc2SCc2cccc(C)c2)cc1 | – | inactive: 0.901% [at 57.1 µM]
COC(=O)CCC/C=C1/SCC(NC(=O)c2ccccc2)C1=O (stereo unspecified) | active: 25.1 µM | –
Cc1cc(C)c2oc(-c3ccc(C)c(NC(=O)/C=C/c4ccco4)c3)nc2c1 | active: 3.16 µM | –
Cc1cc(C)c(NC(=O)/C=C\C(=O)O)c(Cl)c1 | inconclusive: 17.8 µM [inhibitor, full curve] | –
Cn1c(=O)c2c(nc(NCc3ccc4c(c3)OCO4)n2Cc2ccc(F)cc2)n(C)c1=O | – | inactive: -9.48%
COc1ccccc1NCC(=O)c1ccc(Cl)cc1 | – | inactive: 14.1% [at 57.1 µM]
CCN(Cc1ccccc1)C(c1cc2ccc(C)cc2[nH]c1=O)c1nnnn1CCOC (stereo unspecified) | inconclusive: 10 µM [inhibitor, full curve] | –
COC(=O)c1ccc([C@H]2Nc3ccc(S(=O)(=O)Nc4cccc(C)c4)cc3[C@H]3C=CC[C@H]32)cc1 | inconclusive: 50.1 µM [inhibitor, partial curve] | –
CC(NC(=O)C1CCC1)c1ccc(Cl)cc1 (stereo unspecified) | – | inactive: 3.06%
O=C(Nc1ccc(F)cc1)C(NC1CCCCC1)c1ccccc1 (stereo unspecified) | – | inactive: 36.6% [at 57.1 µM]
O=C(Nc1nnc(-c2ccco2)s1)C1CCCCC1 | – | inactive: -8.77%
CCOc1ccc(CCNC(=O)c2cnc3sc(N4CCCCC4)nn3c2=O)cc1 | – | inactive: 28.9% [at 57.1 µM]
CN1CCN(C2=C(Cl)C(=O)N(c3ccc(Cl)c(Cl)c3)C2=O)CC1 | active: 15.8 µM | –
Brc1cccc[n+]1CCCC[n+]1ccccc1Br | inconclusive: 6.31 µM [inhibitor, full curve] | –
Clc1nc(CN2CCCCC2)nc2sc3c(c12)CCC3 | inconclusive: 7.08 µM [inhibitor, partial curve] | –
COc1ccc(/C=C2/CSC/C(=C/c3ccc(OC)c(OC)c3)C2=O)cc1OC | – | inactive: -13%
CC1CCN(CCOc2ccccc2-c2ccccc2)CC1 | – | inactive: 5.31% [at 57.1 µM]
Cc1ccc(/C=C2\SC(=S)N(CC(=O)Nc3cccnc3)C2=O)cc1 | – | inactive: 2.15% [at 57.1 µM]
COc1cc2c(cc1OC)C(CCc1ccccc1)=NCC2 | active: 89.1 µM | –
O=C(CCSc1ccc(Cl)cc1)c1cccs1 | inconclusive: 10 µM [inhibitor, partial curve, poor fit] | –
CC(Sc1nnc(-c2ccco2)n1N)C(=O)NC1CCCCC1C (stereo unspecified) | inconclusive: 70.8 µM [inhibitor, partial curve, poor fit] | –

Structure (SMILES) | Potency | activity change, negative = inhibition
COC(=O)Cc1c(C)c2ccc(OC(=O)c3ccco3)cc2oc1=O | inconclusive: 56.2 µM [inhibitor, partial curve, poor fit] | –
O=C(Nc1nccs1)c1ccc(COc2ccc(Cl)cc2)o1 | – | inactive: -1.66%
COCCn1c(C)cc(O)c(C(c2ccccc2)N2CCN(c3ccccc3)CC2)c1=O (stereo unspecified) | inconclusive: 7.94 µM [inhibitor, partial curve] | –
Cn1nnc(NC(=S)NC(=O)c2cccc3c(Br)cccc23)n1 | inconclusive: 39.8 µM [inhibitor, partial curve] | –
O=C(O)CN1C(=O)/C(=C\c2cc(Br)ccc2OCc2ccc([N+](=O)[O-])cc2)SC1=S | – | inactive: -22.4%
Cc1ccccc1Cc1c(C)nc2c(C(=O)NCc3ccco3)cnn2c1C | inconclusive: 31.6 µM [inhibitor, partial curve] | –
COc1ccc(-n2ncc3c(NCc4ccco4)ncnc32)cc1 | inconclusive: 35.5 µM [inhibitor, single point] | –
CCOc1ccccc1CN1CCc2nc(Nc3ccc4c(c3)OCCO4)ncc2C1 | – | inactive: 13.9% [at 57.1 µM]
O=C(Nc1ccc(N2CCN(C(=O)c3ccccc3)CC2)cc1)c1ccc2c(c1)OCO2 | – | inactive: 6.27%
Cc1ccc(-c2cc(NC(=O)CCl)n(-c3ccccc3)n2)cc1 | active: 35.5 µM | –
CC(C)OC(=O)CSc1nnc(Cc2ccccc2)n1Cc1ccco1 | inconclusive: 44.7 µM [inhibitor, partial curve] | –
O=C(CCc1nnc2ccc(NCc3ccc(Cl)cc3)nn12)NC1CCCCC1 | – | inactive: 1.11%
O=C(NC(=S)NC1CCCCCC1)c1cncc(Br)c1 | inconclusive: 79.4 µM [inhibitor, partial curve, poor fit] | –
C=CCNCc1cccn1-c1sc2c(c1C#N)CCCC2 | inconclusive: 56.2 µM [inhibitor, partial curve, poor fit] | –
CCOC(=O)C1(C)Oc2ccccc2C(C(=O)OC)=C1C(=O)OC (stereo unspecified) | active: 31.6 µM | –
CSc1ccc(NC(=O)CC(C)=O)cc1 | inconclusive: 20 µM [inhibitor, single point] | –
CCOc1cc(C(c2c(C)[nH][nH]c2=O)c2c(C)[nH][nH]c2=O)ccc1O | inconclusive: 39.8 µM [inhibitor, partial curve] | –
O=C(c1cc(Br)ccc1Cl)N1CCN(c2ccccn2)CC1 | – | inactive: -11.8%
C[C@@H]1O[C@@H](O[C@H]2[C@H](Oc3cc(O)c4c(c3)O[C@H](c3ccc(O)cc3)CC4=O)O[C@H](CO)[C@@H](O)[C@@H]2O)[C@H](O)[C@H](O)[C@H]1O | inconclusive: 79.4 µM [inhibitor, single point] | –
NS(=O)(=O)c1ccc2nc(NC(=O)C3=COCCO3)sc2c1 | inconclusive: 79.4 µM [inhibitor, single point] | –
Cc1ccc(-c2cc(-c3n[nH]c(=S)o3)c3ccccc3n2)cc1 | inconclusive: 79.4 µM [inhibitor, partial curve, poor fit] | –
Cc1cccc(N2C(=O)CSC23C(=O)N(CC(=O)NCc2ccccc2Cl)c2ccccc23)c1 (stereo unspecified) | – | inactive: -17.5%
O=Nc1c(-c2ccccc2)cc2ccccn12 | inconclusive: 79.4 µM [inhibitor, partial curve, poor fit] | –
Cc1sc2ncn(CC(=O)N3CCN(c4cccc(Cl)c4)CC3)c(=O)c2c1S(=O)(=O)N1CCN(c2ncccn2)CC1 | – | inactive: 7.35%

Structure (SMILES) | Potency | activity change, negative = inhibition
COc1ccc(N/N=C(/C#N)S(=O)(=O)c2nsc(C)c2C#N)cc1 | inconclusive: 44.7 µM [inhibitor, partial curve, poor fit] | –
O=C(N/N=C/C=N/NC(=O)c1ccco1)c1ccco1 | inconclusive: 79.4 µM [inhibitor, partial curve] | –
COc1ccc(/C=C2\N=C(C)OC2=O)cc1OC(C)=O | active: 44.7 µM | –
CC(=O)Oc1ccc2ccc(=O)oc2c1 | inconclusive: 89.1 µM [inhibitor, single point] | –
CCCOc1cccc(C2C(C(=O)c3ccc(C)o3)=C(O)C(=O)N2c2nc(C)c(C(C)=O)s2)c1 (stereo unspecified) | inconclusive: 28.2 µM [inhibitor, full curve, poor fit] | –
N#Cc1ccc[n+](CC(=O)c2ccc(O)c(O)c2)c1 | inconclusive: 50.1 µM [inhibitor, partial curve, poor fit] | –
COc1cc2cc(C(c3nnnn3Cc3ccc(F)cc3)N3CCCCCC3)c(=O)[nH]c2cc1OC (stereo unspecified) | inconclusive: 0.891 µM [inhibitor, full curve, poor fit] | –
C#CCOc1c(Br)cc(/C=C2/C(=O)ON=C2C)cc1OCC | inconclusive: 17.8 µM [inhibitor, full curve] | –
COc1cccc(CN2CCNC(=O)C2CC(=O)NCC2CCOCC2)c1 (stereo unspecified) | inconclusive: 44.7 µM [inhibitor, partial curve] | –
CC(C)C(=O)Nc1cccc(NC(=S)NC(=O)C(c2ccccc2)c2ccccc2)c1 | inconclusive: 44.7 µM [inhibitor, partial curve] | –
CCOC(=O)c1cc2c(=O)n3ccccc3nc2n(Cc2ccco2)c1=NC(=O)c1c(F)cccc1Cl | inconclusive: 3.98 µM [inhibitor, partial curve, poor fit] | –
CC1=C(C(N)=O)C(c2ccc(C)o2)C(C(N)=O)=C(C)N1 | inconclusive: 50.1 µM [inhibitor, partial curve] | –
O=C(CSC1=NNC(c2ccccn2)S1)Nc1cccc(Cl)c1 (stereo unspecified) | – | inactive: -6.76% [at 57.1 µM]
Cc1cc(C(=O)N/N=C/c2ccc([N+](=O)[O-])o2)c(C)o1 | inconclusive: 44.7 µM [inhibitor, partial curve] | –
O=C(NCc1ccccc1)c1nc(S(=O)(=O)Cc2ccccc2)ncc1Cl | active: 2.82 µM | –
Cc1ccc(S(=O)(=O)N(C)C)cc1NC(=O)COC(=O)c1ccc(Cl)cc1 | – | inactive: 19.9%
O=C(c1cccc(S(=O)(=O)N2CCN(c3ccc(F)cc3)CC2)c1)N1CCCC(C(F)(F)F)C1 (stereo unspecified) | – | inactive: 14.4%
CCNC(=O)COc1ccc(/C=C2\COc3ccccc3C2=O)cc1OC | inconclusive: 39.8 µM [inhibitor, partial curve] | –
S=C(NCc1ccccc1)NCc1ccco1 | inconclusive: 31.6 µM [inhibitor, partial curve] | –
CCCN(CCC)C(=O)Cn1c(=O)n(-c2ccc(OC)cc2)c(=O)c2ccc(C(=O)NCc3ccc(C)cc3)cc21 | – | inactive: 13%
O=C(NC1CCCCC1)C(c1ccc(F)cc1)N(C(=O)Cc1ccsc1)c1ccc(F)cc1 (stereo unspecified) | – | inactive: 28%
S=C(Nc1ccccc1)Nc1ccc(Cl)cn1 | inconclusive: 14.1 µM [inhibitor, partial curve, poor fit] | –
Cc1csc(CN(C)C(=O)CC2C(=O)NCCN2Cc2ccc(F)c(F)c2)n1 (stereo unspecified) | inconclusive: 56.2 µM [inhibitor, partial curve, poor fit] | –

From PubChem BioAssay AID588453 (National Center for Advancing Translational Sciences (NCATS), 2011)
